The list shows a part of the results. At the low end of the ranking the order means little.

The test concerns the target GST-SBP-SLBP (stem-loop binding protein) (UniProt Q14493). In words: targeted RNA Bind-n-Seq.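 Note: DESeq read counts versus GST-SBP nonspecific binding control pulldown.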 As to conditions: RBNS binding buffer: 25 mM Tris pH 7.5, 150 mM KCl, 3 mM MgCl2, 0.1% Tween, 0.5 mg/mL BSA, 1 mM DTT; 27 nM protein, 750 pM RNA pool; temperature not stated; high values mean tight binding.
Consider “GGUCACGUCUCAAUCAACUCAGUUUCCAGGGAAAUCCCUGGUUUUUUCAACAGCUCGCAGUCAAG”, for which the binding signal (log2 fold change) was -0.263. Consider “GGUCACGUCUCAAUCAACUCUUUCUCCAGGGAAAACCCUGGUUAUCUCAACAGCUCGCAGUCAAG”, for which the binding signal (log2 fold change) turned out to be 0.0909. For “GGUCACGUCUCAAUCAACUCUUUCUCCAGGGAAAUCCCUGGCAAACUCAACAGCUCGCAGUCAAG”, the binding signal (log2 fold change) was -0.0739. The value for “GGUCACGUCUCAAUCAACUCCUCCGAGGGGGGGAAAACCCCUUUACCCUCACAUUCAACAGCUCGCAGUCAAG” was 0.147. The value for “GGUCACGUCUCAAUCAACUCAUCUUCAGGAGUUUCCUCCUGCAAUUUCAACAGCUCGCAGUCAAG” was -0.0156; that for “GGUCACGUCUCAAUCAACUCCAAAGAGGGGGGGAAAACCCCUUUACCCUCAUUAUCAACAGCUCGCAGUCAAG” was 0.199; that for “GGUCACGUCUCAAUCAACUCAACGGCAGGAGUUUACUCCUGGAAUUUCAACAGCUCGCAGUCAAG” was -0.148. As for “GGUCACGUCUCAAUCAACUCAUUAGAGGGGGGGAAAACCCCUUUACCCUCACACUCAACAGCUCGCAGUCAAG”, the figure is 0.000745; as for “GGUCACGUCUCAAUCAACUCUAUCUCCAGGGAAAACCCUGGUUAAUUCAACAGCUCGCAGUCAAG”, 0.145. As to “GGUCACGUCUCAAUCAACUCUUUCUCCAGGGAAACCCCUGGCUAUGUCAACAGCUCGCAGUCAAG”, the binding signal (log2 fold change) was -0.185. Take “GGUCACGUCUCAAUCAACUCAUACGAGGGGGGGAAAACCCCUUUACCCUCAACCUCAACAGCUCGCAGUCAAG”: the binding signal (log2 fold change) is -0.357. As for “GGUCACGUCUCAAUCAACUCAUUUCCCAGGGAAACCCCUGGUAUUCUCAACAGCUCGCAGUCAAG”, the figure is 0.0526; as for “GGUCACGUCUCAAUCAACUCAUCAGAGGGGGGGAAAACCCCUUUGCCCUCAAUAUCAACAGCUCGCAGUCAAG”, -0.0333; as for “GGUCACGUCUCAAUCAACUCACAAGAGGGGGGGAAAACCCCUUUACCCUCGAUAUCAACAGCUCGCAGUCAAG”, 0.383. As for “GGUCACGUCUCAAUCAACUCUUUUGCAGGAGUUUUCUCCUGGUAUUUCAACAGCUCGCAGUCAAG”, the figure is -0.153. As for “GGUCACGUCUCAAUCAACUCUAUCCCAGGAGUUUACUCCUGCAAACUCAACAGCUCGCAGUCAAG”, the figure is 0.0981; as for “GGUCACGUCUCAAUCAACUCAACGCCAGGAGUUUACUCCUGUUAAUUCAACAGCUCGCAGUCAAG”, 0.227; as for “GGUCACGUCUCAAUCAACUCAUUCCCCAGGGAAACCCCUGGUAUACUCAACAGCUCGCAGUCAAG”, -0.161. Take “GGUCACGUCUCAAUCAACUCAUCGCCAGGAGUUUCCUCCUGCUAUCUCAACAGCUCGCAGUCAAG”: the binding signal (log2 fold change) is 0.12. The value for “GGUCACGUCUCAAUCAACUCUUCCUCAGGAGUUUACUCCUGCUUUUUCAACAGCUCGCAGUCAAG” was 0.0704; that for “GGUCACGUCUCAAUCAACUCUAUCCCAGGAGUUUUCUCCUGCUAUUUCAACAGCUCGCAGUCAAG” was 0.177; that for “GGUCACGUCUCAAUCAACUCAACUCCAGGAGUUUCCUCCUGUUUUCUCAACAGCUCGCAGUCAAG” was -0.1.

With “GGUCACGUCUCAAUCAACUCAACUCCCAGGGAAAUCCCUGGCUUAUUCAACAGCUCGCAGUCAAG”, the binding signal (log2 fold change) turned out to be 0.0164.

In the case of “GGUCACGUCUCAAUCAACUCACAAGAGGGGGGGAAAACCCCUUUGCCCUCACUAUCAACAGCUCGCAGUCAAG”, the binding signal (log2 fold change) was -0.233. As for “GGUCACGUCUCAAUCAACUCUACUUCCAGGGAAAUCCCUGGCUUUUUCAACAGCUCGCAGUCAAG”, the figure is -0.0329. As for “GGUCACGUCUCAAUCAACUCAUCUUCAGGAGUUUACUCCUGCUAAUUCAACAGCUCGCAGUCAAG”, the figure is 0.211; as for “GGUCACGUCUCAAUCAACUCUAUCUCAGGAGUUUACUCCUGCUAAUUCAACAGCUCGCAGUCAAG”, 0.0625; as for “GGUCACGUCUCAAUCAACUCAUCAGAGGGGGGGAAAACCCCUUUACCCUCACCAUCAACAGCUCGCAGUCAAG”, -0.238. The value for “GGUCACGUCUCAAUCAACUCUUUUCCCAGGGAAAGCCCUGGCAAUCUCAACAGCUCGCAGUCAAG” was 0.059. For “GGUCACGUCUCAAUCAACUCAGUCCCAGGAGUUUUCUCCUGCUUUUUCAACAGCUCGCAGUCAAG”, the binding signal (log2 fold change) is -0.0613. As for “GGUCACGUCUCAAUCAACUCUUAAGAGGGGGGGAAAACCCCUUUACCCUCCACUUCAACAGCUCGCAGUCAAG”, the figure is -0.342; as for “GGUCACGUCUCAAUCAACUCAUCUCCAGGAGUUUACUCCUGCUAACUCAACAGCUCGCAGUCAAG”, 0.114. The value for “GGUCACGUCUCAAUCAACUCAUCCGAGGGGGGGAAAACCCCUUUACCCUCAAAUUCAACAGCUCGCAGUCAAG” was 0.0764; that for “GGUCACGUCUCAAUCAACUCUUCUCCCAGGGAAAACCCUGGCAAUUUCAACAGCUCGCAGUCAAG” was 0.149. The value for “GGUCACGUCUCAAUCAACUCCCUCGAGGGGGGGAAAACCCCUUUACCCUCCAUUUCAACAGCUCGCAGUCAAG” was -0.161; that for “GGUCACGUCUCAAUCAACUCAAUAGAGGGGGGGAAAACCCCUUUGCCCUCACAUUCAACAGCUCGCAGUCAAG” was -0.104; that for “GGUCACGUCUCAAUCAACUCAUCUUCAGGAGUUUGCUCCUGUUUUUUCAACAGCUCGCAGUCAAG” was -0.0673. As for “GGUCACGUCUCAAUCAACUCAACUUCAGGAGUUUUCUCCUGCAAUGUCAACAGCUCGCAGUCAAG”, the binding signal (log2 fold change) stood at 0.0446. The value for “GGUCACGUCUCAAUCAACUCUAGUCCCAGGGAAAGCCCUGGUUUUUUCAACAGCUCGCAGUCAAG” was -0.0134. The value for “GGUCACGUCUCAAUCAACUCUUCUCCCAGGGAAAACCCUGGCUAACUCAACAGCUCGCAGUCAAG” was 0.211; that for “GGUCACGUCUCAAUCAACUCAACUUCAGGAGUUUCCUCCUGUAAUUUCAACAGCUCGCAGUCAAG” was -0.169; that for “GGUCACGUCUCAAUCAACUCAAUGUCAGGAGUUUCCUCCUGUUUACUCAACAGCUCGCAGUCAAG” was -0.00977. As for “GGUCACGUCUCAAUCAACUCUUUAGAGGGGGGGAAAACCCCUUUGCCCUCAUAUUCAACAGCUCGCAGUCAAG”, the figure is 0.0919; as for “GGUCACGUCUCAAUCAACUCAUUUCCCAGGGAAACCCCUGGCUUAUUCAACAGCUCGCAGUCAAG”, -0.092; as for “GGUCACGUCUCAAUCAACUCUACGCCAGGAGUUUACUCCUGUAUUUUCAACAGCUCGCAGUCAAG”, -0.0687. On to “GGUCACGUCUCAAUCAACUCAUCCUCCAGGGAAAGCCCUGGUUUAUUCAACAGCUCGCAGUCAAG”, for which the binding signal (log2 fold change) is -0.215. With “GGUCACGUCUCAAUCAACUCCUAAGAGGGGGGGAAAACCCCUUUACCCUCCAUUUCAACAGCUCGCAGUCAAG”, the binding signal (log2 fold change) came out at 0.0366.

(Values after article PMC5892938.)
